Source: PubChem BioAssay AID504332 (National Center for Advancing Translational Sciences (NCATS), 2011)
Where “and” joins values, the source holds several entries; their conditions need not be identical. Equal entries are not always repeated. Out of some 350,000 compounds screened, about 31,000 (8.9%) were called active. The shares of active, inactive and inconclusive entries below differ from those in the screen. The call rests on the fitted dose curve; in most records, active means well fitted inhibition curve with a large enough effect; inconclusive means small, poorly fitted or top-dose-only effect; inactive means no such curve, though single readings can be large or run the other way. Potencies beside an inconclusive call are fits to weak or partial responses and may not hold up. Some structures have more than one record in an assay (separate samples or runs), and their calls can disagree.
Further: nearly all actives have a fitted effect of over 75% in size.
On the % scale 0 is the no-effect control and ±100 the full control effect; potency means the concentration at half of the fitted maximal effect; tags describe the fitted curve by direction and shape.

Each compound was assayed against Histone-lysine N-methyltransferase EHMT2 (Homo sapiens) (UniProt Q96KQ7) (assay: qHTS Assay for Inhibitors of Histone Lysine Methyltransferase G9a). Conditions: G9a H3K9 monomethylation, AlphaScreen, 2 h; activity, negative = inhibition: at 59 µM (top of the series) unless noted.
UniProt Q96KQ7, sequence (Q96KQ7 whole entry, looked up, the tested form may be a part): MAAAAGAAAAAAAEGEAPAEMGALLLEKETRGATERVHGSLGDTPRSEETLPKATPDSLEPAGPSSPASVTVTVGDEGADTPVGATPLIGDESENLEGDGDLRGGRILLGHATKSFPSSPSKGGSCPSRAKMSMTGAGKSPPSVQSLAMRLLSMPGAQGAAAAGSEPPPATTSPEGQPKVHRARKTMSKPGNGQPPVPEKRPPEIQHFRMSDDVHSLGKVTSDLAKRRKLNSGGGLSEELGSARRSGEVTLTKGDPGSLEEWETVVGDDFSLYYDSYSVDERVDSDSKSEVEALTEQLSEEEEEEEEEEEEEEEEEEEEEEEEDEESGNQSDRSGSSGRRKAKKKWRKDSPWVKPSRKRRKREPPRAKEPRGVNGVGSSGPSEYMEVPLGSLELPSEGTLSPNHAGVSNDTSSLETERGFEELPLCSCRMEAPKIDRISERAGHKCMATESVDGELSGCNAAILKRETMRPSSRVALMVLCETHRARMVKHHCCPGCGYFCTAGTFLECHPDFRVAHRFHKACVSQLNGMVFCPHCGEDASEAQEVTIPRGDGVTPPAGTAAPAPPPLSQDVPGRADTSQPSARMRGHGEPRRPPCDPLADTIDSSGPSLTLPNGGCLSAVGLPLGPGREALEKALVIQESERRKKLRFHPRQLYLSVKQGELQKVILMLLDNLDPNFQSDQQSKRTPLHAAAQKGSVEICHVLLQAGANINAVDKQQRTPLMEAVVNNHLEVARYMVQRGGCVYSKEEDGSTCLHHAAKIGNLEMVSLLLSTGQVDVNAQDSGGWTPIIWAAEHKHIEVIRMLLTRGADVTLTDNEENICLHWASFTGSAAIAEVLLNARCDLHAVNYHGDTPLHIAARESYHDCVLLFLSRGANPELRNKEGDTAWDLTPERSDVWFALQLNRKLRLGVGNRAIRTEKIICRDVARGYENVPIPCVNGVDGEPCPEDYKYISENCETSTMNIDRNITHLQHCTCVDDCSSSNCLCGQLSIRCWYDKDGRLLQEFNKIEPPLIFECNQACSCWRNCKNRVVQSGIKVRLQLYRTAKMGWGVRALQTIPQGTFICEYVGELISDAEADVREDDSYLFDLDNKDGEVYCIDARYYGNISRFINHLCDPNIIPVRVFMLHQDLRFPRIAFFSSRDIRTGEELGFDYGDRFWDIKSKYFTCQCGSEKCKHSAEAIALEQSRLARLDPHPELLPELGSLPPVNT
Text: Methylated lysines, on the N-terminal tails of histone proteins serve as epigenetic markers to recruit factors that can then modify local chromatin structure to lead to functional consequences. G9a and other members of the SUV39 family of the SET domain-containing superfamily of histone lysine methyltransferases (HMT) have been identified to specifically methylate Lys9 of histone H3 (H3K9). G9a catalyzes the mono- and di-methylation of H3K9 in mammalian euchromatic regions, where the resulting H3K9me2 is indicative of transcriptional repression. […] The inhibition of G9a will result in transcriptional activation and work synergistically with DNA methyltransferase and histone deacetylase inhibitors, to kill cancer cells. This qHTS assay for identification of G9a inhibitors is a chemiluminescence based AlphaScreen (PerkinElmer). Methylation of biotinylated-histone peptide is measured through specific antibody-based detection, in conjunction with streptavidin-coated donor and anti-IgG antibody-coated acceptor beads. The method is particularly well suited for detection of inhibitors acting by the desired histone peptide competitive mechanism and is applicable to testing other HMTs. Although AlphaScreen has significant advantages with its utility in a variety of epigenetic target assays, the primary screening data provided in this deposition should be used with caution due to the prevalence of screening artifacts. An AlphaScreen counterscreen is highly recommended to be run against any putative actives to eliminate non specific artifacts. Alternatively, one can use other AlphaScreen assays in PubChem to filter out promiscuous hits. Quinn et al. A chemiluminescence-based method for identification of histone lysine methyltransferase inhibitors. Mol Biosyst 6(5): 782-8. 2010. PMID: 20567762 [2] Baell,Holloway. New substructure filters for removal of pan assay interference compounds (PAINS) from screening libraries and for their exclusion in bioassays. J Med Chem. 53(7):2719-40. 2010. PMID: 20131845 NIH Molecular Libraries Probe Production Network [MLPCN] NIH Chemical Genomics Center [NCGC] Structural Genomics Consortium (SGC) NIH Grant: 5U54 MH084681-02
To each well of a 1,536w plate, 2ul of HMT enzyme (final 20nM) were added, using a nanoliter dispenser. The G9a- and GLP-inhibitor BIX-01294 (CID: 25150857) are used as an intraplate control, with a 16-point titration in duplicate. A Kalypsys pin-tool transferred 23nl of library compound solution in DMSO to each well. Following a 15 min incubation of enzyme with compounds at room temperature, 1ul mixture of b-H3K9 peptide substrate (final 500nM) and SAM cofactor (final 20uM) were added. Reactions were allowed to proceed at room temperature for 2 hours. Methylated b-H3K9 peptide product was detected with 0.5 ug/mL rabbit polyclonal anti-monomethyl histone H3K9 antibody (Abcam Inc., Cambridge, MA) and 20 ug/mL each streptavidin-coated donor and anti-rabbit IgG acceptor AlphaScreen beads. Antibody and beads were added in a 1ul dispense, for a final volume of 4ul, and plates were incubated, protected from the light, for 10 min at room temperature. Microplates were then read on an EnVision multilabel plate reader using the 1,536 plate HTS AlphaScreen aperture (excitation time 80 ms, measurement time 240 ms).
With `O=C1c2ccccc2-c2c1nc1c([n+]2[O-])CCCC1` the Potency was inconclusive: 79.4 µM [inhibitor, single point]. `CC12CC[C@H]3[C@@H](CCC4(O)C[C@H](O)CCC34/C=N/NC(=O)Cc3ccccc3)C1(O)CCC2C1=CC(=O)OC1` (stereo partly specified) was tested, and the Potency was inconclusive: 39.8 µM [inhibitor, single point]. `Cc1ccc(-n2c(O)c(/C=C/C=Nc3ccccc3)c(=O)[nH]c2=O)cc1` was tested, and the Potency was inconclusive: 35.5 µM [inhibitor, single point]. For `C[C@@H]1O[C@H](C[N+](C)(C)C)C[C@@H]1O`, the Potency was “inactive”. `O=C1CC(N2CC=C(c3ccccc3)CC2)C(=O)N1c1ccc(F)cc1` (stereo unspecified) was tested, and the Potency was active: 10 µM. In the case of `S=C1Nc2ccccc2Sc2ccccc21`, the Potency is reported as active: 10 µM. With `CCOC(=S)SSC(=S)OCC` the Potency was inconclusive: 0.891 µM [inhibitor, full curve, poor fit]. `Cc1ccc2oc(=O)n(CCC(=O)Nc3ccc(N4CCOCC4)cc3)c2c1` was tested, and the Potency was inconclusive: 7.08 µM [inhibitor, full curve, poor fit]. In the case of `CCOC(=O)c1ccc(N2C(=O)CC(N3CC=C(c4ccc(F)cc4)CC3)C2=O)cc1` (stereo unspecified), the Potency is reported as active: 3.16 µM. For `Cc1oc(-c2ccccc2Cl)nc1CN1C(=O)CN=C(c2ccccc2)c2cc(Cl)ccc21`, the Potency was “inactive”. With `CCOC(=O)CSCCOc1ccc(C=C2C(=O)NC(=O)NC2=O)cc1OC` the Potency was active: 22.4 µM. In the case of `CCOc1cc2c(cc1OCC)-n1cccc1C(c1ccc(OC)c(OC)c1)NC2` (stereo unspecified), the Potency is reported as “inactive”. `CN1C(=O)C(=Cc2ccc(N3CCCCCC3)o2)C(=O)N(C)C1=S` was tested, and the Potency was active: 44.7 µM. For `CCOc1ccc(/C=C2/C(=O)NC(=O)N(CCc3ccc(F)cc3)C2=O)cc1`, the Potency was inconclusive: 3.55 µM [inhibitor, partial curve, poor fit]. `CC1SC2(CN3CCC2CC3)NC1=O` (stereo unspecified) was tested, and the Potency was inconclusive: 50.1 µM [inhibitor, partial curve]. With `O=C(COc1ccccc1)N1CCN(CC2CC=CCC2)CC1` (stereo unspecified) the Potency was active: 20 µM. For `CC1N(C)c2cc(NC(=O)c3ccco3)c(P(=O)(Nc3ccc([N+](=O)[O-])cc3)N3CCOCC3)cc2C1(C)C` (stereo unspecified), the Potency was active: 50.1 µM. In the case of `C=CCN1C(=O)NC(=O)/C(=C/c2cnc(SC)nc2)C1=O`, the activity, negative = inhibition is reported as inconclusive: -109% [inhibitor]. For `OC(CCNCCc1c[nH]c2ccccc12)C(F)(F)F` (stereo unspecified), the Potency was “inactive”. `CCc1ccccc1N1C(=O)/C(=C/c2ccc(N3CCN(C)CC3)o2)C(=O)NC1=S` was tested, and the Potency was inconclusive: 28.2 µM [inhibitor, single point]. `O=C(O)c1ccc(/C=C/c2nc3ccccc3c(=O)n2-c2ccc(Br)cc2)cc1` was tested, and the Potency was inconclusive: 89.1 µM [inhibitor, single point]. With `CN1C2C=C(N(C(=O)c3ccc(Cl)cc3)c3ccccc3)CC1CC2` (stereo unspecified) the Potency was inconclusive: 89.1 µM [inhibitor, single point]. In the case of `Cc1cc(NC(=O)CCl)no1`, the Potency is reported as inconclusive: 89.1 µM [inhibitor, single point]. For `COP(=O)(OC)[C@@H](O)C(Cl)(Cl)Cl`, the Potency was “inactive”. In the case of `Cc1ccc(Cn2cccc(C(=O)Nc3nnc(C)s3)c2=O)cc1`, the Potency is reported as inconclusive: 10 µM [inhibitor, partial curve]. `Cc1nc2ccccc2n1C1CCN(Cc2nnnn2CCc2ccccc2)CC1` was tested, and the Potency was active: 50.1 µM. In the case of `CCC(CC)N1CCN(C(=O)Cc2ccccc2)CC1`, the Potency is reported as active: 11.2 µM. For `CCN1CCC2(CC1)NC(=O)c1ccccc1O2`, the Potency was inconclusive: 44.7 µM [inhibitor, partial curve]. In the case of `CC(C)C[C@H](NC(=O)[C@H](Cc1ccccc1)NC(=O)CNC(=O)[C@H](CS)N(C(=O)[C@@H](N)Cc1ccc(O)cc1)C(C)(C)C)C(=O)N([C@H](C(=O)O)[C@H](C)O)C(C)(C)C`, the Potency is reported as “inactive”. For `O=C1NC(=O)C2=Cc3ccc(O)cc3OC2(O)N1` (stereo unspecified), the Potency was inconclusive: 44.7 µM [inhibitor, partial curve]. With `COc1ccc(/C=C2/Sc3ccc(C(=O)N4CCc5ccccc5C4)cc3NC2=O)cc1` the Potency was inconclusive: 14.1 µM [inhibitor, partial curve, poor fit]. In the case of `CC(/C=C(\C)Nc1ccccc1)=Nc1ccccc1`, the Potency is reported as inconclusive: 39.8 µM [inhibitor, partial curve, poor fit]. With `CCCCCCCCCCCCCCCC(=O)OC[C@H](COP(=O)([O-])OCC[N+](C)(C)C)OC(C)=O` the Potency was inconclusive: 0.631 µM [inhibitor, full curve, poor fit]. `O=C1C(Cl)=CC(=Nc2ccc(O)cc2)C=C1Cl` was tested, and the Potency was inconclusive: 1 µM [inhibitor, single point]. For `Oc1ccc(C[C@H]2NCCc3cc(O)c(O)cc32)cc1O`, the Potency was inconclusive: 39.8 µM [inhibitor, partial curve, poor fit]. With `CCN(CC)CCOC(=O)c1ccc(N=Cc2c(O)[nH]c(=O)[nH]c2=O)cc1` the Potency was inconclusive: 39.8 µM [inhibitor, single point]. `C=CCn1c(O)c(C(C)=Nc2ccc(NC(C)=O)cc2)c(=O)[nH]c1=O` was tested, and the Potency was inconclusive: 89.1 µM [inhibitor, single point]. With `CC(=Nc1ccc(F)cc1)c1c(O)n(C)c(=O)[nH]c1=O` the Potency was inconclusive: 44.7 µM [inhibitor, partial curve]. `COc1ccccc1OC(C)C(=O)N1CCC(Cc2ccccc2)CC1` (stereo unspecified) was tested, and the Potency was active: 50.1 µM. `C=C[C@@H]1CN2CC[C@H]1C[C@H]2[C@H](O)c1ccnc2ccccc12` was tested, and the Potency was “inactive”. In the case of `C/C=C1/C[N+]2(C)CCC34C(=C(C=O)[C@H]1C[C@@H]32)Nc1ccccc14` (stereo partly specified), the Potency is reported as inconclusive: 1.58 µM [inhibitor, full curve, poor fit]. With `COc1cc(-c2nc3ccc(Cl)cn3c2Nc2ccc3c(c2)OCCO3)ccc1O` the Potency was active: 12.6 µM. In the case of `CN1CCN(c2nc3ccccn3c(=O)c2C=C2C(=O)N(C)C(=O)N(C)C2=O)CC1`, the Potency is reported as inconclusive: 17.8 µM [inhibitor, single point]. With `COc1ccc(N/N=C/c2c(O)n(-c3cccc(C)c3)c(=O)[nH]c2=O)cc1` the Potency was active: 2.24 µM. `C[C@H]1CC[C@@H]2[C@@H](C)[C@H]3[C@H](C[C@H]4[C@@H]5CC=C6CC(O[C@@H]7O[C@H](CO)[C@H](O)[C@H](O[C@@H]8O[C@H](CO)[C@@H](O)[C@H](O)[C@H]8O)[C@H]7O[C@H]7O[C@@H](C)[C@H](O)[C@@H](O)[C@H]7O)CC[C@]6(C)[C@H]5CC[C@]34C)N2C1` (stereo partly specified) was tested, and the Potency was inconclusive: 20 µM [inhibitor, single point]. `c1ccc(C2(N3CCCC3)CCCCC2)cc1` was tested, and the Potency was inconclusive: 3.16 µM [inhibitor, partial curve, poor fit]. With `O=C1C2CCCN2C(c2cccs2)N1c1ccc(Cl)cc1` (stereo unspecified) the Potency was inconclusive: 56.2 µM [inhibitor, partial curve]. `[Hg+][c]1ccccc1` was tested, and the Potency was inconclusive: 0.178 µM [inhibitor, full curve, poor fit]. `CCN(CC)c1ccc(/C=N/c2sc3c(c2C#N)C2CCN3CC2)c(O)c1` was tested, and the Potency was inconclusive: 10 µM [inhibitor, partial curve, poor fit]. For `Cn1cccc1/C=C1/C(=O)NC(=O)N(C(C)(C)C)C1=O`, the activity, negative = inhibition was inactive: 8.92% [at 12.7 µM]. `O=c1[nH]c(=O)n(-c2cccc(Cl)c2)c(O)c1C=NCCCN1CCOCC1` was tested, and the Potency was inconclusive: 15.8 µM [inhibitor, single point]. `CCOC(=O)c1ccc(NC(=O)c2c(O)[nH]c(=O)[nH]c2=O)cc1` was tested, and the Potency was inconclusive: 31.6 µM [inhibitor, single point]. In the case of `O=c1[nH]c2ccccc2n1CCCN1CCC(n2c(=O)[nH]c3cc(Cl)ccc32)CC1`, the Potency is reported as “inactive”. With `CN1CCN(c2cc(N3CCCC3)c([N+](=O)[O-])cc2F)CC1` the Potency was inconclusive: 44.7 µM [inhibitor, partial curve, poor fit]. For `C[N+](C)(C)CC(=O)O`, the Potency was “inactive and active: 39.8 µM”. With `CCCc1cnc2c(c1SCC(=O)Nc1ccc([N+](=O)[O-])cc1)c(=O)n(C)c(=O)n2C` the Potency was active: 12.6 µM. With `Cc1ccc(NC(=O)CN2C(=O)CN=C(c3ccccc3)c3cc(Cl)ccc32)cc1` the Potency was inconclusive: 50.1 µM [inhibitor, partial curve, poor fit]. `CN1C2CCC1/C(=C/c1ccccn1)C(=O)/C2=C\c1ccccn1` was tested, and the Potency was inconclusive: 31.6 µM [inhibitor, single point]. With `Cc1ccc(NC(=O)N(Cc2ccc3c(c2)OCO3)C2CCN(Cc3ccccc3)CC2)cc1Cl` the Potency was inconclusive: 11.2 µM [inhibitor, partial curve, poor fit]. With `COc1ccc(/C=C2/C(=O)NC(=S)N(C3CC3)C2=O)cc1CN1C(=O)c2ccccc2C1=O` the Potency was active: 3.55 µM. `CC1=NN(Cc2c[nH]c3ccccc23)C(C)(C)C1` was tested, and the activity, negative = inhibition was inconclusive: -51.2% [inhibitor]. With `O=C(c1ccccc1)N1CCN(CCc2ccccc2)CC1` the Potency was inconclusive: 89.1 µM [inhibitor, single point]. `CN(C)c1ccc(/C=C/c2cc[n+](C)c3ccccc23)cc1` was tested, and the Potency was inconclusive: 44.7 µM [inhibitor, single point]. In the case of `CCCCCCCCCCCCCC(=O)OC1C(C)[C@@]2(O)C(C=C(CO)C[C@]3(O)C(=O)C(C)=C[C@H]23)[C@@H]2C(C)(C)[C@]12OC(C)=O` (stereo partly specified), the activity, negative = inhibition is reported as inactive: -30.6% [at 2.33 µM]. In the case of `Cn1cc(C(=O)N2CCCCC2)c2ccccc21`, the Potency is reported as “inactive”. With `O=C1C(I)=CC(=C(c2cc(I)c(O)c(I)c2)c2ccccc2C(=O)O)C=C1I` the Potency was inconclusive: 1.58 µM [inhibitor, partial curve, poor fit].
